In the RNAGym collection of RNA variant scans (doi:10.7554/elife.90254):
The source gives no read counts; variants with many changes may rest on few reads.

B1: LINE1-full (parent)
chain: UACGUAGGUGGUUUUCCCCUGAUAGUGCUAAGGGGGCCUGGAAGUUUGGACUGGGCAGAGCUCAACACAGCGUGGCAAAGUGGCUGUGGCUAGACUGCCUCUCUGGAUUCCUCGUCACUCAGCAGGGCAUCUCUGAGAGAAAUGCC

Variants of: B1
Assay: self-cleavage, relative activity (ratio to wild type); higher = more cleavage; in vitro, sequencing; the parent is a self-cleaving ribozyme

With U12C G34U U104C U134A U143C as the variant, how does the self-cleavage read?
The self-cleavage was 1.91.

Which self-cleavage does the source give for U45C U87A U108C here?
The self-cleavage was 0.04.

With U85A A140U A141G as the variant, how does the self-cleavage read?
Its self-cleavage is 0.05.

With U9C U13C U73C A121G as the variant, how does the self-cleavage read?
Its self-cleavage is 1.97.

Which self-cleavage does the source give for G7U U52C A121U here?
Its self-cleavage is 1.53.

Which self-cleavage does the source give for U9A U26C U115A here?
The self-cleavage was 1.69.

For G55C U87A A142G, which self-cleavage is on record?
The self-cleavage was 0.02.

Which self-cleavage does the source give for G4A C19A A141G here?
Its self-cleavage is 0.83.

Which self-cleavage does the source give for A2U A65U U119C G139A C145G here?
The self-cleavage was 0.42.

With U87A A107G A138G as the variant, how does the self-cleavage read?
Its self-cleavage is 0.13.

With A69G A77G U102A U104A as the variant, how does the self-cleavage read?
The self-cleavage was 0.

For A2G U39A C51A A78G C101U, which self-cleavage is on record?
The self-cleavage was 1.37.

With A59G G89A U96A as the variant, how does the self-cleavage read?
The self-cleavage was 0.03.

Which self-cleavage does the source give for U1C U109A A129G here?
The self-cleavage was 0.55.

With A79U U112C A142U U143G as the variant, how does the self-cleavage read?
Its self-cleavage is 1.74.

For U13C U87A A107U A136G, which self-cleavage is on record?
The self-cleavage was 0.56.

Which self-cleavage does the source give for A24G A30U U132C A140G here?
Its self-cleavage is 1.42.

For C63U A77G A121G, which self-cleavage is on record?
Its self-cleavage is 0.61.

With U5C U14C A59U as the variant, how does the self-cleavage read?
Its self-cleavage is 0.67.

With A50G U96C U130C as the variant, how does the self-cleavage read?
The self-cleavage was 0.

Which self-cleavage does the source give for G7A A43G U87A U91C here?
Its self-cleavage is 0.

With U45C C63U A129G as the variant, how does the self-cleavage read?
The self-cleavage was 0.26.

Which self-cleavage does the source give for U73A U115C A121G here?
Its self-cleavage is 1.08.

Which self-cleavage does the source give for U9A U14C U130C A141G here?
Its self-cleavage is 1.05.

For C19G A77G A92G, which self-cleavage is on record?
Its self-cleavage is 0.97.

With U81C U85A U112C A121G as the variant, how does the self-cleavage read?
The self-cleavage was 0.

With U29A U62A U112A as the variant, how does the self-cleavage read?
The self-cleavage was 0.06.

With U29C A138U A140G as the variant, how does the self-cleavage read?
The self-cleavage was 1.86.

With A57U A78G U81C U104A as the variant, how does the self-cleavage read?
Its self-cleavage is 0.

With U46C U81A U112C as the variant, how does the self-cleavage read?
Its self-cleavage is 1.89.

Which self-cleavage does the source give for A31U U81C G106A A141G here?
The self-cleavage was 0.69.

Which self-cleavage does the source give for U62C C71U A78G C116G here?
Its self-cleavage is 0.

Which self-cleavage does the source give for U45C A92G C95U A136G here?
The self-cleavage was 0.03.

Which self-cleavage does the source give for U1A U29C G32U here?
The self-cleavage was 0.66.

Which self-cleavage does the source give for A57U A65G A79U A129G here?
Its self-cleavage is 0.06.

Which self-cleavage does the source give for A2G U47A A57G here?
The self-cleavage was 1.02.

For A24U U104C A129U, which self-cleavage is on record?
The self-cleavage was 1.73.

Which self-cleavage does the source give for U14C A24G A42G A67U U96A here?
Its self-cleavage is 0.

For U45C U100A A136G, which self-cleavage is on record?
The self-cleavage was 0.66.

With G48U A94G U115A A142G as the variant, how does the self-cleavage read?
The self-cleavage was 0.17.

With A50G A69U A141G as the variant, how does the self-cleavage read?
The self-cleavage was 0.11.

With U15C U115C A129G as the variant, how does the self-cleavage read?
The self-cleavage was 2.48.

For U85A U108C A140G, which self-cleavage is on record?
Its self-cleavage is 0.18.

Which self-cleavage does the source give for G21A A22G A59G here?
The self-cleavage was 0.06.

With A2G G75A A79G U104C A124U as the variant, how does the self-cleavage read?
The self-cleavage was 0.22.

For G4A U5C U73C C84G A107G, which self-cleavage is on record?
Its self-cleavage is 0.38.

Which self-cleavage does the source give for U73C U104A U143A here?
Its self-cleavage is 1.56.

Which self-cleavage does the source give for U13C U96A U102C U132C here?
Its self-cleavage is 0.

For U26C U87A A92G, which self-cleavage is on record?
The self-cleavage was 0.14.

Which self-cleavage does the source give for U9C A94G C99U A138G here?
The self-cleavage was 0.21.

Which self-cleavage does the source give for A22G U39C A78G U100C here?
Its self-cleavage is 0.84.

With U46C A64U G93A as the variant, how does the self-cleavage read?
The self-cleavage was 0.02.

For G7U A50U A64G, which self-cleavage is on record?
Its self-cleavage is 0.14.

For U12G A94U U112A, which self-cleavage is on record?
Its self-cleavage is 0.32.

Which self-cleavage does the source give for U13C U14C A65G U96A U102C A142G here?
The self-cleavage was 0.

With U15G U39C A50G A57U as the variant, how does the self-cleavage read?
The self-cleavage was 0.46.

With C38A U85A U104C as the variant, how does the self-cleavage read?
The self-cleavage was 0.1.

Which self-cleavage does the source give for U15C A77G U112C here?
The self-cleavage was 2.68.

For U87A U104A A129U, which self-cleavage is on record?
The self-cleavage was 0.1.

Which self-cleavage does the source give for G40A A59G A107G U115C here?
The self-cleavage was 0.

For U15C C113U A141G A142G, which self-cleavage is on record?
The self-cleavage was 2.02.

Which self-cleavage does the source give for A2G U100C A124G here?
The self-cleavage was 1.53.

With A77U U115C A142G as the variant, how does the self-cleavage read?
The self-cleavage was 1.53.

Which self-cleavage does the source give for U20A U26A U91A here?
The self-cleavage was 0.37.

For C3U A22G A141G A142G, which self-cleavage is on record?
The self-cleavage was 0.45.

For U13C U29C A67U A94U C120U, which self-cleavage is on record?
Its self-cleavage is 0.09.

With A42G U46C U104A A142G as the variant, how does the self-cleavage read?
Its self-cleavage is 1.07.

Which self-cleavage does the source give for C3U U46A U87A A140G A142G here?
Its self-cleavage is 0.23.

Which self-cleavage does the source give for A43G A59G U119A here?
Its self-cleavage is 0.

For U14C A59G A65G A121G, which self-cleavage is on record?
The self-cleavage was 0.

With U12C U46A U81A as the variant, how does the self-cleavage read?
The self-cleavage was 2.4.

With U73A U119C A136G as the variant, how does the self-cleavage read?
The self-cleavage was 1.89.

For U12A U85C A140G, which self-cleavage is on record?
Its self-cleavage is 0.17.

Which self-cleavage does the source give for U9C G74U C113U here?
The self-cleavage was 0.47.

With U45C U85A A94G as the variant, how does the self-cleavage read?
The self-cleavage was 0.31.

Which self-cleavage does the source give for U23C G34U U130C here?
Its self-cleavage is 0.95.

With U20A U62C A121U as the variant, how does the self-cleavage read?
The self-cleavage was 0.04.

With G33A A50U U73A A79G A117G U130C A136G as the variant, how does the self-cleavage read?
The self-cleavage was 0.53.

For A22G C61G U143A, which self-cleavage is on record?
Its self-cleavage is 0.09.

Which self-cleavage does the source give for A69G U104A U112C here?
The self-cleavage was 0.15.

Which self-cleavage does the source give for U12C U73C A124C here?
The self-cleavage was 0.54.

For U1C U46C U104C, which self-cleavage is on record?
The self-cleavage was 1.39.

Which self-cleavage does the source give for U45C U62A U112C here?
The self-cleavage was 0.07.
